The list shows a part of the results. The list includes weakly bound sequences.

Binding signal (RPM ratio (pull-down/input)) data for 63 sequences are collected here from publication PMC12820563.

This experiment deals with T1, MBP-FoxP3dN (UniProt Q99JB6).
T1 sequence: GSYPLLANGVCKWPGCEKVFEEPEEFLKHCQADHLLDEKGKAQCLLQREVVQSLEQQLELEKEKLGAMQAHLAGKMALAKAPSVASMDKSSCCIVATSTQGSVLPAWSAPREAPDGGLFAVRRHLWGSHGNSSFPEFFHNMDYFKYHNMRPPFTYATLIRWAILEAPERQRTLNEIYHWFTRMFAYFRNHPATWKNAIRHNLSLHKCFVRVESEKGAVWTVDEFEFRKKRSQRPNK
Nature of the experiment: PD-seq (MBP pull-down with sequencing). As to conditions: 20 mM Tris-HCl pH 7.5, 100 mM NaCl, 1.5 mM MgCl2, 0.4 uM protein, 0.1 uM dsDNA library, 30 min, room temperature, amylose pull-down; high values mean tight binding; double strand, one strand shown.
“GATGATTGTTCTCCCAGCTGATGAATTTTCGGAGTCGAGTAAACAAATTTTCCTAATCTTTCTGTTCAAGCGCCATCTAC”: the binding signal (RPM ratio (pull-down/input)) turned out to be 0.22. In the case of “GATGATTGTTCTCCCAGCTGATGAATTCTCGAATTCGAGTAAACAAATTTTCCTAATCTTTCTGTTCAAGCGCCATCTAC”, the binding signal (RPM ratio (pull-down/input)) amounted to 0.614. As to “GATGATTGTTCTCCCAGCTGATGAATTGTCTCGCTCGAGTAAACAAATTTTCCTAATCTTTCTGTTCAAGCGCCATCTAC”, the binding signal (RPM ratio (pull-down/input)) is 0.359. Take “GATGATTGTTCTCCCAGCTGATGAATTACAAACATCGAGTAAACAAATTTTCCTAATCTTTCTGTTCAAGCGCCATCTAC”: the binding signal (RPM ratio (pull-down/input)) came out at 3.56. As for “GATGATTGTTCTCCCAGCTGATGAATTGTAGTGGTCGAGTAAACAAATTTTCCTAATCTTTCTGTTCAAGCGCCATCTAC”, the binding signal (RPM ratio (pull-down/input)) is 1.04. As for “GATGATTGTTCTCCCAGCTGATGAATTTTTATCATCGAGTAAACAAATTTTCCTAATCTTTCTGTTCAAGCGCCATCTAC”, the binding signal (RPM ratio (pull-down/input)) turned out to be 0.467.

In the case of “GATGATTGTTCTCCCAGCTGATGAATTCGGAGCTTCGAGTAAACAAATTTTCCTAATCTTTCTGTTCAAGCGCCATCTAC”, the binding signal (RPM ratio (pull-down/input)) came out at 0.283. For the sequence “GATGATTGTTCTCCCAGCTGATGAATTACCACGTTCGAGTAAACAAATTTTCCTAATCTTTCTGTTCAAGCGCCATCTAC”, the binding signal (RPM ratio (pull-down/input)) was determined as 0.39. Turning to “GATGATTGTTCTCCCAGCTGATGAATTCCTAGTCTCGAGTAAACAAATTTTCCTAATCTTTCTGTTCAAGCGCCATCTAC”, the binding signal (RPM ratio (pull-down/input)) was found to be 0.258. For “GATGATTGTTCTCCCAGCTGATGAATTGTCTAGATCGAGTAAACAAATTTTCCTAATCTTTCTGTTCAAGCGCCATCTAC”, the binding signal (RPM ratio (pull-down/input)) amounted to 0.308. For the sequence “GATGATTGTTCTCCCAGCTGATGAATTGTAGATTTCGAGTAAACAAATTTTCCTAATCTTTCTGTTCAAGCGCCATCTAC”, the binding signal (RPM ratio (pull-down/input)) stood at 0.564. For the sequence “GATGATTGTTCTCCCAGCTGATGAATTTCGGCTTTCGAGTAAACAAATTTTCCTAATCTTTCTGTTCAAGCGCCATCTAC”, the binding signal (RPM ratio (pull-down/input)) came out at 1.1. With “GATGATTGTTCTCCCAGCTGATGAATTCGTTGGTTCGAGTAAACAAATTTTCCTAATCTTTCTGTTCAAGCGCCATCTAC” the figure was 3.75; with “GATGATTGTTCTCCCAGCTGATGAATTCCACAAATCGAGTAAACAAATTTTCCTAATCTTTCTGTTCAAGCGCCATCTAC”, 0.223.

“GATGATTGTTCTCCCAGCTGATGAATTGGCCTCTTCGAGTAAACAAATTTTCCTAATCTTTCTGTTCAAGCGCCATCTAC”: the binding signal (RPM ratio (pull-down/input)) came to 1.37.

For “GATGATTGTTCTCCCAGCTGATGAATTTCGAGTTTCGAGTAAACAAATTTTCCTAATCTTTCTGTTCAAGCGCCATCTAC”, the binding signal (RPM ratio (pull-down/input)) turned out to be 1. The figure for “GATGATTGTTCTCCCAGCTGATGAATTAAGCTTCTCGAGTAAACAAATTTTCCTAATCTTTCTGTTCAAGCGCCATCTAC” is 1.78; for “GATGATTGTTCTCCCAGCTGATGAATTACTCGAATCGAGTAAACAAATTTTCCTAATCTTTCTGTTCAAGCGCCATCTAC” it is 0.269; for “GATGATTGTTCTCCCAGCTGATGAATTTAGAACATCGAGTAAACAAATTTTCCTAATCTTTCTGTTCAAGCGCCATCTAC” it is 0.579. With “GATGATTGTTCTCCCAGCTGATGAATTATTGCACTCGAGTAAACAAATTTTCCTAATCTTTCTGTTCAAGCGCCATCTAC” the figure was 1.36; with “GATGATTGTTCTCCCAGCTGATGAATTGCAACAGTCGAGTAAACAAATTTTCCTAATCTTTCTGTTCAAGCGCCATCTAC”, 2.42.

On to “GATGATTGTTCTCCCAGCTGATGAATTAGATAGATCGAGTAAACAAATTTTCCTAATCTTTCTGTTCAAGCGCCATCTAC”, for which the binding signal (RPM ratio (pull-down/input)) came to 0.342. With “GATGATTGTTCTCCCAGCTGATGAATTCTTCCTGTCGAGTAAACAAATTTTCCTAATCTTTCTGTTCAAGCGCCATCTAC” the figure was 0.18; with “GATGATTGTTCTCCCAGCTGATGAATTAAGTGCCTCGAGTAAACAAATTTTCCTAATCTTTCTGTTCAAGCGCCATCTAC”, 0.884. With “GATGATTGTTCTCCCAGCTGATGAATTCAGGACGTCGAGTAAACAAATTTTCCTAATCTTTCTGTTCAAGCGCCATCTAC” the figure was 0.259; with “GATGATTGTTCTCCCAGCTGATGAATTACGTCAATCGAGTAAACAAATTTTCCTAATCTTTCTGTTCAAGCGCCATCTAC”, 0.466; with “GATGATTGTTCTCCCAGCTGATGAATTTACCGCTTCGAGTAAACAAATTTTCCTAATCTTTCTGTTCAAGCGCCATCTAC”, 0.539. With “GATGATTGTTCTCCCAGCTGATGAATTCCTGAAATCGAGTAAACAAATTTTCCTAATCTTTCTGTTCAAGCGCCATCTAC”, the binding signal (RPM ratio (pull-down/input)) was determined as 0.237. With “GATGATTGTTCTCCCAGCTGATGAATTTAAGCTATCGAGTAAACAAATTTTCCTAATCTTTCTGTTCAAGCGCCATCTAC” the figure was 0.511; with “GATGATTGTTCTCCCAGCTGATGAATTCTATCAGTCGAGTAAACAAATTTTCCTAATCTTTCTGTTCAAGCGCCATCTAC”, 0.44. The figure for “GATGATTGTTCTCCCAGCTGATGAATTCGTGCCTTCGAGTAAACAAATTTTCCTAATCTTTCTGTTCAAGCGCCATCTAC” is 2.26. The figure for “GATGATTGTTCTCCCAGCTGATGAATTCCCTCAGTCGAGTAAACAAATTTTCCTAATCTTTCTGTTCAAGCGCCATCTAC” is 0.214; for “GATGATTGTTCTCCCAGCTGATGAATTTTCTACATCGAGTAAACAAATTTTCCTAATCTTTCTGTTCAAGCGCCATCTAC” it is 0.336.

As for “GATGATTGTTCTCCCAGCTGATGAATTTCCACGGTCGAGTAAACAAATTTTCCTAATCTTTCTGTTCAAGCGCCATCTAC”, the binding signal (RPM ratio (pull-down/input)) stood at 0.19.

With “GATGATTGTTCTCCCAGCTGATGAATTCGTGGACTCGAGTAAACAAATTTTCCTAATCTTTCTGTTCAAGCGCCATCTAC”, the binding signal (RPM ratio (pull-down/input)) was 0.554. The figure for “GATGATTGTTCTCCCAGCTGATGAATTATTGTCTTCGAGTAAACAAATTTTCCTAATCTTTCTGTTCAAGCGCCATCTAC” is 1.5; for “GATGATTGTTCTCCCAGCTGATGAATTCATAGCCTCGAGTAAACAAATTTTCCTAATCTTTCTGTTCAAGCGCCATCTAC” it is 0.493. For “GATGATTGTTCTCCCAGCTGATGAATTGCGTAGTTCGAGTAAACAAATTTTCCTAATCTTTCTGTTCAAGCGCCATCTAC”, the binding signal (RPM ratio (pull-down/input)) was found to be 1.39. The figure for “GATGATTGTTCTCCCAGCTGATGAATTGTGCTCGTCGAGTAAACAAATTTTCCTAATCTTTCTGTTCAAGCGCCATCTAC” is 0.963; for “GATGATTGTTCTCCCAGCTGATGAATTTGGTCTGTCGAGTAAACAAATTTTCCTAATCTTTCTGTTCAAGCGCCATCTAC” it is 0.534. The figure for “GATGATTGTTCTCCCAGCTGATGAATTGGCGGAATCGAGTAAACAAATTTTCCTAATCTTTCTGTTCAAGCGCCATCTAC” is 0.249. The figure for “GATGATTGTTCTCCCAGCTGATGAATTGAGCGGGTCGAGTAAACAAATTTTCCTAATCTTTCTGTTCAAGCGCCATCTAC” is 0.401; for “GATGATTGTTCTCCCAGCTGATGAATTCAAGATATCGAGTAAACAAATTTTCCTAATCTTTCTGTTCAAGCGCCATCTAC” it is 0.294; for “GATGATTGTTCTCCCAGCTGATGAATTAGTGTGATCGAGTAAACAAATTTTCCTAATCTTTCTGTTCAAGCGCCATCTAC” it is 1.17. Take “GATGATTGTTCTCCCAGCTGATGAATTCCATTGTTCGAGTAAACAAATTTTCCTAATCTTTCTGTTCAAGCGCCATCTAC”: the binding signal (RPM ratio (pull-down/input)) was determined as 1.42. For the sequence “GATGATTGTTCTCCCAGCTGATGAATTATCGCCGTCGAGTAAACAAATTTTCCTAATCTTTCTGTTCAAGCGCCATCTAC”, the binding signal (RPM ratio (pull-down/input)) was determined as 0.64. “GATGATTGTTCTCCCAGCTGATGAATTCCGCTTGTCGAGTAAACAAATTTTCCTAATCTTTCTGTTCAAGCGCCATCTAC”: the binding signal (RPM ratio (pull-down/input)) came out at 3.68. With “GATGATTGTTCTCCCAGCTGATGAATTGCACATGTCGAGTAAACAAATTTTCCTAATCTTTCTGTTCAAGCGCCATCTAC” the figure was 1.13; with “GATGATTGTTCTCCCAGCTGATGAATTGATGATATCGAGTAAACAAATTTTCCTAATCTTTCTGTTCAAGCGCCATCTAC”, 0.737. With “GATGATTGTTCTCCCAGCTGATGAATTCAGATGTTCGAGTAAACAAATTTTCCTAATCTTTCTGTTCAAGCGCCATCTAC” the figure was 1.06.

“GATGATTGTTCTCCCAGCTGATGAATTCAGGCATTCGAGTAAACAAATTTTCCTAATCTTTCTGTTCAAGCGCCATCTAC”: the binding signal (RPM ratio (pull-down/input)) came out at 4.03. The figure for “GATGATTGTTCTCCCAGCTGATGAATTTTGCTCGTCGAGTAAACAAATTTTCCTAATCTTTCTGTTCAAGCGCCATCTAC” is 0.732. With “GATGATTGTTCTCCCAGCTGATGAATTCCGCTAGTCGAGTAAACAAATTTTCCTAATCTTTCTGTTCAAGCGCCATCTAC” the figure was 1.45; with “GATGATTGTTCTCCCAGCTGATGAATTGCGATACTCGAGTAAACAAATTTTCCTAATCTTTCTGTTCAAGCGCCATCTAC”, 1.26; with “GATGATTGTTCTCCCAGCTGATGAATTACGTTGATCGAGTAAACAAATTTTCCTAATCTTTCTGTTCAAGCGCCATCTAC”, 1.44. The figure for “GATGATTGTTCTCCCAGCTGATGAATTCCAACGATCGAGTAAACAAATTTTCCTAATCTTTCTGTTCAAGCGCCATCTAC” is 0.313. As for “GATGATTGTTCTCCCAGCTGATGAATTGCCTACTTCGAGTAAACAAATTTTCCTAATCTTTCTGTTCAAGCGCCATCTAC”, the binding signal (RPM ratio (pull-down/input)) turned out to be 0.561. With “GATGATTGTTCTCCCAGCTGATGAATTTACCCTCTCGAGTAAACAAATTTTCCTAATCTTTCTGTTCAAGCGCCATCTAC” the figure was 0.461. Turning to “GATGATTGTTCTCCCAGCTGATGAATTAAAGGGATCGAGTAAACAAATTTTCCTAATCTTTCTGTTCAAGCGCCATCTAC”, the binding signal (RPM ratio (pull-down/input)) was determined as 0.259. Consider “GATGATTGTTCTCCCAGCTGATGAATTCATACCGTCGAGTAAACAAATTTTCCTAATCTTTCTGTTCAAGCGCCATCTAC”, for which the binding signal (RPM ratio (pull-down/input)) was 0.396. With “GATGATTGTTCTCCCAGCTGATGAATTATCCGAATCGAGTAAACAAATTTTCCTAATCTTTCTGTTCAAGCGCCATCTAC” the figure was 0.207; with “GATGATTGTTCTCCCAGCTGATGAATTTGACGGATCGAGTAAACAAATTTTCCTAATCTTTCTGTTCAAGCGCCATCTAC”, 0.251; with “GATGATTGTTCTCCCAGCTGATGAATTACGGCTCTCGAGTAAACAAATTTTCCTAATCTTTCTGTTCAAGCGCCATCTAC”, 0.506.
